Out of some 310,000 compounds screened, about 2,200 (0.71%) showed an effect of 50% or more. The effect is printed as a negative number. Some of the results follow.
target: human ether-à-go-go-related gene (hERG) potassium channel (human, UniProt Q12809); experiment: primary screen, population patch clamp on CHO cells stably expressing hERG
Sequence (Q12809 whole entry, looked up): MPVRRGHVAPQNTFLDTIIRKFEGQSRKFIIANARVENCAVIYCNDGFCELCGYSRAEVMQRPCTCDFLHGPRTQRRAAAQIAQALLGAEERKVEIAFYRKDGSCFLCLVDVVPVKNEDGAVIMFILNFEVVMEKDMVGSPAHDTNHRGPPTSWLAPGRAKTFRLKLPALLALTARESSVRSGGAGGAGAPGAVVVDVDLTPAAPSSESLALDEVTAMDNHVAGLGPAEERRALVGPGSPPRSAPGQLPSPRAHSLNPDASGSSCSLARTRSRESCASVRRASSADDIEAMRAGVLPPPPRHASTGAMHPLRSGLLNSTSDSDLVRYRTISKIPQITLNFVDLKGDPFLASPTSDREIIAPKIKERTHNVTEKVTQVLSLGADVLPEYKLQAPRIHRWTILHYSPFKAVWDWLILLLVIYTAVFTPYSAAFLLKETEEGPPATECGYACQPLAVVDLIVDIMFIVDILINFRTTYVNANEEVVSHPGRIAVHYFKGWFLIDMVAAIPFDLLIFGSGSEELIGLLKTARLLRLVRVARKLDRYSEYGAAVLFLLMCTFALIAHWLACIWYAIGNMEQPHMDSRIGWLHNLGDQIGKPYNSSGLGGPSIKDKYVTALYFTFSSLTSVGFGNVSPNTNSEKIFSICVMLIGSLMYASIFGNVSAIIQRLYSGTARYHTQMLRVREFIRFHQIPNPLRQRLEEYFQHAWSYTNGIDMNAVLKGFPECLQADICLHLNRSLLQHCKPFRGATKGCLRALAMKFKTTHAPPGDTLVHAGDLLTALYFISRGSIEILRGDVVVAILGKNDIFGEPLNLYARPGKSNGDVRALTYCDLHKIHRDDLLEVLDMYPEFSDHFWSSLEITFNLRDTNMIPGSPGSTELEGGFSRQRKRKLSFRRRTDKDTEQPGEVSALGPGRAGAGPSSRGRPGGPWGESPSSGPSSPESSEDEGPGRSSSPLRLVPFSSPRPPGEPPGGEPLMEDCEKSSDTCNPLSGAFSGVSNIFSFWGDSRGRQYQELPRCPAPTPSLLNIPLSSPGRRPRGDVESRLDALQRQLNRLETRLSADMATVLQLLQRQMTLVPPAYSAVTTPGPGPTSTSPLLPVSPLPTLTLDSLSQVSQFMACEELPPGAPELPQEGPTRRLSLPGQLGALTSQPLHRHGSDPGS

Structure (SMILES) | hERG current change (%, negative = inhibition) at 1uM [%]
Cc1ccc(SCC(=O)OC(C)C(=O)Nc2ccc(S(N)(=O)=O)cc2)cc1C (stereo not shown) | 20.1
CCCNC(=O)COC(=O)c1cc(C)nc2ccccc12 | 12.6
CCOc1cc(/C=N/NC(=O)CNc2cccc(C)c2)ccc1OC(=O)c1ccccc1 | 9.63
Cc1cc(Cl)c(S(=O)(=O)N2CCN(c3ccccc3)CC2)cc1OCC(N)=O | 7.06
Cc1ccc(-c2nnc(CSc3nc(C(C)C)nc4sc(C)c(C)c34)o2)cc1 | -10.7
COc1ccccc1N(CC(=O)NCCN1CCOCC1)S(=O)(=O)c1ccccc1 | 16.4
O=C(c1cccs1)N1CCc2ccccc21 | -4.39
COc1ccc(NC(=S)NCc2ccccn2)cc1OC | 7.17
O=C1N[C@@H](Cc2ccccc2)C(=O)N1CCN1CCOCC1 | 12.2
Cc1ccc(S(=O)(=O)N2CCC(C(=O)NN3CCCCC3)CC2)cc1 | 9.51
O=C(NCc1cccc(C(F)(F)F)c1)c1ccc2c(c1)OCCO2 | 10
Cc1ccc(C)c(NC(=O)CCN2CCN(c3ccccc3F)CC2)c1 | 0.666
Cc1nc(SCCO)c([N+](=O)[O-])[nH]1 | 12.4
COc1cc(/C=C/c2ccc3c([N+](=O)[O-])cccc3n2)ccc1OCC(=O)O | 11
O=C(CSc1nc2ccccc2c(=O)n1CCCN1CCOCC1)c1c[nH]c2ccccc12 | 0.908
CC(=O)c1c(C)[nH]c(C(=O)CN2C(=O)NC(C)(CCC(C)C)C2=O)c1C (stereo not shown) | 14.7
O=C(NCc1ccc2c(c1)OCO2)C1CCC(CNc2c(N3CCCC3)c(=O)c2=O)CC1 (stereo not shown) | 14.5
COc1ccc(CN2CCC(C(=O)N3CCN(c4ccccc4F)CC3)CC2)cc1OC | 3.9
CC(C)N(Cc1cnn(C)c1)Cc1nc(Cc2ccccc2Cl)no1 | 4.8
CCCn1nc(C(=O)N2CCCc3ccccc32)c2ccccc2c1=O | -4.52
CCc1ccc(N2CCN(C(=O)c3ccc(OC)c(OC)c3)CC2)cc1 | -8.2
O=C(CSc1nccc(-c2cccs2)n1)Nc1cccc(Cl)c1Cl | 13.6
CC(=O)Oc1ccc(-c2ccc(C(=O)OCC(=O)N(C)CC(=O)Nc3ccccc3Cl)cc2)cc1 | -41
CC(C)(C)c1ccc(C(=O)Nc2ccc(S(=O)(=O)Nc3cnc4ccccc4n3)cc2)cc1 | -8.1
Oc1cccc(-n2nnnc2SCc2ccccc2F)c1 | 8.72
CC(C)=NOc1cc(NC(=O)CCl)cc([N+](=O)[O-])c1 | 6.87
O=C(NC(Cc1c[nH]c2ccccc12)C(=O)N/N=C/c1ccc(Cl)cc1)c1cccs1 (stereo not shown) | 0.956
O=C(NCCN=C1NS(=O)(=O)c2ccccc21)c1ccccc1 | 13.8

Structure (SMILES) | hERG current change (%, negative = inhibition) at 1uM [%]
Cc1ccccc1Cn1ccc(NC(=O)c2nc3ncccn3n2)n1 | 13.4
NCCc1c[nH]c2ccccc12 | 17.7
FC(F)(F)c1nc(NCc2ccccc2)c2nnn(Cc3ccccc3)c2n1 | 11.8
Cc1c(C(=O)N(Cc2ccco2)Cc2cccs2)oc2ccccc12 | -7.49
NS(=O)(=O)c1ccc(CNC(=O)/C=C/c2cccc(Cl)c2)cc1 | 3.67
CCOC(=O)C1=C(C)N(C)C(=S)NC1c1ccc(Cl)cc1Cl (stereo not shown) | 16.6
CC1Cc2cc(-c3csc(NC(=O)Cc4ccccc4)n3)ccc2N1S(C)(=O)=O (stereo not shown) | -2.45
COc1ccc(S(=O)(=O)NCc2cccs2)cc1 | 15.9
O=C(Nc1nc(-c2cc(F)ccc2F)cs1)c1ccccn1 | 10.7
CCOc1ccc(NC(=S)C(C#N)=C2N(C)c3ccccc3N2C)cc1 | -13.1
COc1ccccc1C(=O)NC(=O)COC(=O)c1ccc(Cl)nc1 | 14
CN(C)c1cccc2c(C#N)ccc(N(C)C)c12 | -6.16
CC(C)c1oc(=O)cc2c1[C@@H](O)[C@H]1OC(=O)[C@@]3(C)C[C@@H](O)[C@@H](O)[C@@]2(C)C13 (stereo partly shown) | 7.58
CCCCN(CC)CCNc1c(NC2CCN(C(=O)OCC)CC2)c(=O)c1=O | 11.8
COc1cccc(C2/C(=C(/O)c3ccc(F)cc3)C(=O)C(=O)N2CCN(C)C)c1 (stereo not shown) | 15.7
CC(C)OCC(O)CN1CCNCC1.Cl (stereo not shown) | 8.62
COc1cc(NC(=O)CCS(=O)(=O)c2ccc3c(c2)n(C)c(=O)c(=O)n3C)cc(OC)c1 | 9.28
CN1C(=O)C(O)(C2OC(C)(C)CCC2=O)c2ccccc21 (stereo not shown) | 1.31
CCOC(=O)c1c(C)oc2cc(Sc3ccccc3)c(O)c(O)c12 | 9.96
COc1cccc(C2(CSc3nnc(-c4cc(OC)c(OC)c(OC)c4)o3)OCCO2)c1 | -5.17
Cc1cccc(C(=O)NNS(=O)(=O)c2ccccc2[N+](=O)[O-])c1 | 6.95
COc1ccc(-n2ncc(C(C)NS(=O)(=O)c3ccc(C(C)=O)cc3)c2C)cc1 (stereo not shown) | 10.7
O=C(Cc1ccc(S(=O)(=O)N2CCOCC2)s1)N1CCN(c2ccc(C(F)(F)F)cc2[N+](=O)[O-])CC1 | -15.5
Cc1noc(NS(=O)(=O)c2ccc(NC(=O)C(C)(C)C)cc2)c1C | 14.9
O=C(c1c(F)cccc1F)N(Cc1ccccn1)C1CCCC1 | 16.7
NC(=O)CSc1nnc(-c2ccc([N+](=O)[O-])cc2)o1 | 5.43
CC(=O)NS(=O)(=O)c1ccc(NC(=O)CCC(=O)Oc2ccc(C)cc2)cc1 | 8.92
